Assay results published in PubChem BioAssay AID485313 (National Center for Advancing Translational Sciences (NCATS), 2010).
Among all 320,000 compounds or so, about 7,600 (2.4%) were called active. The inconclusive results got no clear call from the source; some entries with a clear call stand among them for comparison. Calls follow the shape of the dose curve; as a rule, active = well fitted activation curve with a large enough effect; inconclusive = small, poorly fitted or top-dose-only effect; inactive = no such curve, though single readings can be large or run the other way. Potencies of inconclusive entries are left out as doubtful fits.

Assay: qHTS Assay for NPC1 Promoter Activators; also: nearly all actives have a fitted effect of over 60% in size;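 as to activation: reporter is driven by a mutant NPC1 promoter; % of control where 0% means no effect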
Conditions: Huh7 NPC1 promoter luciferase reporter, 24 h; series mostly up to 9.22 µM; activation: at the top concentration
Procedure, shortened: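 Stably transfected Huh7 (NPC1 promoter→luciferase), 1500 cells/well in Opti-MEM + 10% FBS, 2 h settle, then compound 24 h at 37 °C. Luminescence after 10 min with Amplite reagent.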
Potency is read from the fitted curve at half-maximal effect; tags tell the direction and shape of the fitted curve.

SMILES	activation	Potency
O=C(COC(=O)c1ccccc1Nc1ccccc1F)c1ccccc1	inactive: -2.67%	
COc1nc(-c2ccccc2)ccc1-c1noc(-c2ccccc2F)n1		inconclusive [activator, partial curve]
Cc1cc(C(=O)N/N=C/c2ccc3ccccc3c2)n[nH]1	inactive: -3.65%	
COc1ccc2[nH]c3c(c2c1)CCNC3c1ccc([N+](=O)[O-])o1 (configuration not stated)	inactive: 4.87%	
COCCCNC(=O)COc1ccc(-c2nccc(-c3ccccn3)n2)cc1	inactive: -3.29%	
CCc1ccccc1NC(=O)CCc1c(C)nc(SC)nc1C	inactive: -2.37%	
O=C(O)C1CC(c2ccccc2)=Nc2ccccc2S1 (configuration not stated)		inconclusive [activator, partial curve]
CC1CCN(C(=O)COC(=O)c2c[nH]c3ccccc23)CC1		inconclusive [activator, single point]
Cc1nc2cc(NC(=O)N3c4ccccc4CC3C)ccc2n1C (configuration not stated)		active: 0.501 µM
O=C(NC(=S)NCC1CCCO1)c1ccc(Br)o1 (configuration not stated)		inconclusive [activator, single point]
CCOc1ccc2[nH]c3c(NCCOC)ncnc3c2c1		inconclusive [activator, single point]
O=C(N/N=C/c1ccc(Br)o1)c1ccc2c(c1)OCCO2		active: 3.16 µM
CC(NC(=O)/C(C#N)=C/c1cccs1)c1ccccc1 (configuration not stated)	inactive: -1.79%	
CC(=O)c1cnc(Nc2cccc(C)c2)s1		inconclusive [activator, single point]
O=C(CNC(=O)c1ccc(F)cc1)c1ccccc1		active: 1.41 µM
Cn1cccc1CNC(=O)Nc1ccc(Cl)cc1		inconclusive [activator, partial curve]
O=C1c2cccc3c(N4CCCCC4)ccc(c23)C(=O)N1CCO		inconclusive [activator, partial curve]
CC(C)NC(=O)NC(=O)COc1ccc(Br)cc1Br		active: 1 µM
CCCCn1nc(CC(=O)NCCN(CC)CC)c2ccccc2c1=O	inactive: 0.741%	
COc1ccc(N=Cc2c(O)ccc3ccccc23)cc1	inactive: -1.93%	
NNC(=O)c1cccc(COc2ccc(Br)cc2)c1		active: 0.316 µM
O=C(c1cc2sccc2n1Cc1ccccc1)N1CCCc2ccccc21		inconclusive [activator, partial curve]
O=C(Nc1ccc(-c2nc3ccccc3o2)cc1)c1cccnc1		active: 2.24 µM
CCOC(=O)Cc1csc(NC(=O)/C=C/c2ccccc2Cl)n1		inconclusive [activator, full curve]
COc1ccccc1OCc1ccc(C(=O)Nc2ccccc2)cc1		inconclusive [activator, partial curve]
Cc1cccc(C(=O)N=c2sccn2C)c1[N+](=O)[O-]		active: 2.82 µM

SMILES	activation	Potency
O=C(O)c1ccc(/C=C/C(=O)c2ccc3c(c2)OCCCO3)cc1		inconclusive [activator, partial curve]
CCN(CC)CCCNC(=S)Nc1ccc(Br)cc1		inconclusive [activator, single point]
CC(C)(C)Cc1nc(-c2ccccn2)no1		inconclusive [activator, partial curve]
CCOc1ccc(NC(=O)CN(C)C(=O)c2c(-c3ccccc3Cl)noc2C)cc1OCC	inactive: -1.87%	
COc1ccc(C(=O)NCCc2nnc3ccc(SCC(=O)NCc4ccccc4)nn23)cc1		inconclusive [activator, partial curve]
Cc1cccc(-c2nnc(SCC(=O)N3CCOCC3)o2)c1		inconclusive [activator, partial curve]
c1ccc2c(COn3nnc4ccccc43)cccc2c1		inconclusive [activator, partial curve]
O=[N+]([O-])c1cccc(/C=N/N2CCN(c3ccccn3)CC2)c1		inconclusive [activator, single point]
CN1CCN(c2ncnc3c2cnn3-c2ccc(Cl)cc2)CC1		inconclusive [activator, partial curve]
O=c1c(Cl)c(N2CCCCC2)cnn1-c1nc2ccccc2[nH]1		inconclusive [activator, partial curve]
COc1ccccc1NC(=S)NC(=O)CC(C)C	inactive: 7%	
O=c1c2ccccc2nc2n1CC/C2=C\c1ccccc1[N+](=O)[O-]		inconclusive [activator, single point]
O=c1c(-c2ccc3c(c2)OCCO3)coc2c(CN3CCOCC3)c(O)ccc12		inconclusive [activator, partial curve]
CC(Oc1cccc(Cl)c1)C(=O)Nc1ccc(S(=O)(=O)N(C)C2CCN(C)CC2)cc1 (configuration not stated)	inactive: -5.95%	
CC(C)c1cc(C(=O)NCCc2ccccc2)no1		active: 3.16 µM
Fc1cccc(/C=N/Nc2nccnc2Cl)c1		inconclusive [activator, single point]
Cc1ccc2nc(-c3ccc(NC(=O)COC(=O)c4ccc([N+](=O)[O-])o4)cc3)sc2c1		active: 0.398 µM
COCCn1c(SCC(=O)/C=C2\N(C)c3ccccc3C2(C)C)nnc1-c1ccncc1	inactive: -1.16%	
COc1ccc(SC[C@H](CC(C)C)N2CCN(CCc3ccccc3)CCC2=O)cc1	inactive: 13.8%	
CCCCCOCC(O)CCC(=O)NN (configuration not stated)	inactive: -4.44%	
O=C(NCc1ccc(Cl)cc1)c1csc(-c2cccnc2)n1	inactive: 4.87%	
CCC1CCCCN1C(=O)CCS(=O)(=O)c1ccccc1 (configuration not stated)		inconclusive [activator, partial curve]
N#Cc1ccccc1OCC(=O)NC(=O)NCc1ccco1		inconclusive [activator, single point]
CCC(=O)Nc1cccc(-c2nnc(SCC(=O)c3ccccc3)n2C)c1		inconclusive [activator, partial curve]
Fc1ccc(-c2ccc(Nc3cccc(F)c3)nn2)cc1		inconclusive [activator, partial curve]
Cc1cccc(C)c1N1CCN(C(=O)Nc2ccc3c(c2)OCCO3)CC1		inconclusive [activator, single point]
